Test results from publication PMC9911399, “Two distinct binding modes provide the RNA-binding protein RbFox with extraordinary sequence specificity”.
Substitutions are numbered along the chain they refer to; changes in the protein carry UniProt numbers. The list shows a part of the results.

T1: RBFOX1 RRM (Homo sapiens, UniProt Q9NWB1 109-208)
T1 sequence: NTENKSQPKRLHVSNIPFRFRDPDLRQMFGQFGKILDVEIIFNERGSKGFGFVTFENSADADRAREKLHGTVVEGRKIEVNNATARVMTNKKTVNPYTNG

B1: AAAGUUA (DNA:RNA)
RNA: GGGAGACCGGAAUUCAGAUUGUCCAAAGUUAUUAAAUCCCGUCGUAGCCACCA
DNA 1: CAATCTGAATTCCGGTCTCCC
DNA 2: TGGTGGCTACGACGGGATT
B2: AUUCAGC (DNA:RNA)
RNA: B1 RNA with A26U, A27U, G28C, U29A, U30G, A31C
DNA 1: CAATCTGAATTCCGGTCTCCC
DNA 2: TGGTGGCTACGACGGGATT
B3: UUAGGUG (DNA:RNA)
RNA: B1 RNA with A25U, A26U, U29G, A31G
DNA 1: CAATCTGAATTCCGGTCTCCC
DNA 2: TGGTGGCTACGACGGGATT
B4: UAGCACC (DNA:RNA)
RNA: B1 RNA with A25U, A27G, G28C, U29A, U30C, A31C
DNA 1: CAATCTGAATTCCGGTCTCCC
DNA 2: TGGTGGCTACGACGGGATT
B5: ACAUGGC (DNA:RNA)
RNA: B1 RNA with A26C, G28U, U29G, U30G, A31C
DNA 1: CAATCTGAATTCCGGTCTCCC
DNA 2: TGGTGGCTACGACGGGATT
B6: GUCUUGA (DNA:RNA)
RNA: B1 RNA with A25G, A26U, A27C, G28U, U30G
DNA 1: CAATCTGAATTCCGGTCTCCC
DNA 2: TGGTGGCTACGACGGGATT
B7: UGCAUGG (DNA:RNA)
RNA: B1 RNA with A25U, A26G, A27C, G28A, U30G, A31G
DNA 1: CAATCTGAATTCCGGTCTCCC
DNA 2: TGGTGGCTACGACGGGATT
B8: UCCACGG (DNA:RNA)
RNA: GGGAGACCGGAAUUCAGAUUGUCCUCCACGGUUAAAUCCCGUCGUAGCCACCA
DNA 1: CAATCTGAATTCCGGTCTCCC
DNA 2: TGGTGGCTACGACGGGATT
B9: CUAAUGG (DNA:RNA)
RNA: B8 RNA with U25C, C26U, C27A, C29U
DNA 1: CAATCTGAATTCCGGTCTCCC
DNA 2: TGGTGGCTACGACGGGATT

These binders were tested against T1, RBFOX1 RRM (assay: EMSA; HiTS-Eq, 1 nM pool, 10 min; buffer printed only for the single-RNA assays: 10 mM Tris pH 7.5, 150 mM NaCl, 3.4 mM EDTA, 0.001% NP-40, 30 C). Details: tags: His6 N-terminal (pET28a); label: 5' 32P.
In short: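 Purified RbFox RRM (wild type or mutant) was equilibrated for 10 min in 50 µL with 1 nM of a 5′-radiolabelled pool of RNA with 7 randomized nucleotides, its flanks annealed to DNA oligonucleotides, across increasing protein concentrations. Free RNA was separated by 8% native PAGE, excised, reverse-transcribed, PCR-barcoded and sequenced on an Illumina HiSeq 2500. Relative association constants came from read-count changes of each variant against the control reaction, normalised to the cognate motif.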
B1 was tested, and the binding signal was 0.00214 KA relative to UGCAUGU. B2 was tested, and the binding signal was 0.0054 KA relative to UGCAUGU. With B3 the binding signal was 0.0203 KA relative to UGCAUGU. With B4 the binding signal was 0.0118 KA relative to UGCAUGU. B5 was tested, and the binding signal was 0.00822 KA relative to UGCAUGU. In the case of B6, the binding signal is reported as 0.0212 KA relative to UGCAUGU. B7 was tested, and the binding signal was 0.965 KA relative to UGCAUGU. In the case of B8, the binding signal is reported as 0.00671 KA relative to UGCAUGU. With B9 the binding signal was 0.00979 KA relative to UGCAUGU.
